Results taken from ChEMBL document CHEMBL1201862, “PubChem BioAssay data set” (2004).

tested on: NCI-H322M; test: NCI tumour cell line growth inhibition, 48 h

Row | SMILES | GI50
1 | CC1=C(C(=O)NCCCN(CCO)CCO)CC(C(=O)NCCCN(CCO)CCO)=C(C)N1 | inactive: > 100 µM
2 | COC(=O)C1=C(C(=O)OC)c2cc(OC)ccc2C(C(=S)N(C)C)S1 (configuration not stated) | inactive: > 100 µM
3 | N=c1c2c(=S)n(-c3ccccc3)c(=S)n(-c3ccccc3)c2nc(SCCCN2CCN(c3cccc(Cl)c3)CC2)n1-c1ccccc1 | inactive: 31.8 µM
4 | O=C1NN=C(c2c[nH]c3ccccc23)CC1NCc1ccccc1 (configuration not stated) | inactive: > 100 µM
5 | Cc1cccc(C)c1NC(=O)CCC(=O)/N=C(\N)NC#N | inactive: > 100 µM
6 | COC(=O)C1CC2C=CC=CC(=O)C2(C)C1 (configuration not stated) | inactive: 46.8 µM
7 | O=C(NC(CS)C(=O)O)c1cccc2c(=O)c3ccccc3[nH]c12 (configuration not stated) | inactive: > 100 µM
8 | N=C(N)NCC1CCCCCCN1 (configuration not stated) | inactive: > 100 µM
9 | OC(C/C=N/N=C/CC(O)(C(F)(F)Cl)C(F)(F)Cl)(C(F)(F)Cl)C(F)(F)Cl | inactive: > 10 µM
10 | CC1(C)c2ccccc2N2O[C@@H]3C(=O)N(c4ccccc4)C(=O)[C@@H]3C21c1ccccc1 (some centres not stated) | inactive: > 100 µM
11 | CCN(CC)CCSc1nc2c(c(=N)n1-c1ccccc1)c(=S)n(-c1ccccc1)c(=S)n2-c1ccccc1 | inactive: 11 µM
12 | Nc1cccc2c1-c1c(cccc1[N+](=O)[O-])C2=O | inactive: > 100 µM
13 | CC(C)(C)/N=C1/CC(C)(C)c2ccccc2/C(=N\c2ccccc2)S1 | inactive: > 100 µM
14 | CCC(=O)C(c1ccccc1)c1ccccn1 (configuration not stated) | inactive: > 100 µM
15 | O=[S@@]1Nc2ccc(Br)cc2S1 | inactive: > 100 µM
16 | CCCCCCCCCCCCCCCCC1=CC(=O)C=C(OC)C1=O | inactive: > 100 µM

Row | SMILES | GI50
17 | O=c1c2cc(Br)ccc2n(C2OC(CO)C(O)C(O)C2O)c(=S)n1-c1ccccc1 (configuration not stated) | inactive: > 100 µM
18 | Nc1ccc(Nc2cc(O)nc(O)n2)cc1 | inactive: 76.2 µM
19 | O=C(Cc1nc2sc3c(c2c(=O)[nH]1)CCCC3)Nc1ccccc1 | inactive: > 100 µM
20 | COc1cc(/C=C2\N=C(C)N(n3c(-c4ccccc4)nc4ccccc4c3=O)C2=O)cc(OC)c1OC | inactive: > 100 µM
21 | OCCOCCN1CCN(c2nc(N3CCCC3)c3nc(Cl)c(NCc4ccccc4)nc3n2)CC1 | inactive: 15.6 µM
22 | CCN(CCCl)c1cccc(NC(=O)c2ccc(C(=O)Nc3cccc(CN(C)C)c3)cc2)c1 | active: 0.23 µM
23 | CSCCC(NCc1c(O)ccc2c(-c3ccccc3)cc(=O)oc12)C(=O)O (configuration not stated) | inactive: > 100 µM
24 | Cc1c2oc3c(C)ccc(C(=O)NC4C(=O)NC(Cc5ccc(O)cc5)C(=O)N5CCCC5C(=O)N(C)CC(=O)N(C)C(C(C)C)C(=O)OC4C)c3nc-2c(C(=O)NC2C(=O)NC(Cc3ccc(O)cc3)C(=O)N3CCCC3C(=O)N(C)CC(=O)N(C)C(C(C)C)C(=O)OC2C)c(N)c1=O (configuration not stated) (I: TYP[Sar][NMeV] / II: TYP[Sar][NMeV]; ester I:1-I:C, II:1-II:C; linker I:N-II:N via Actinocin(9to1); configuration not given here) | active: 0.9 µM
25 | CC1(C)CC[C@]2(C(=O)O)CCC3(C)C(=CCC4[C@@]5(C)CC[C@H](OC6OCC(O)C(O)C6OC6OC(CO)C(O)C(O)C6O)C(C)(C)C5CC[C@]43C)C2C1 (some centres not stated) | inactive: 2.07 µM
26 | C[N+](C)(C)CCCCCc1c2nc(c(CCCCC[N+](C)(C)C)c3ccc([nH]3)c(CCCCC[N+](C)(C)C)c3nc(c(CCCCC[N+](C)(C)C)c4ccc1[nH]4)C=C3)C=C2 | inactive: > 100 µM
27 | Cn1cc/c(=N\N=c2/ccn(C)c3ccccc23)c2ccccc21 | inactive: 16.6 µM
28 | N#C/C(=C\c1ccc(O)c(O)c1)C(N)=S [TYRPHOSTIN 47] | inactive: > 87.3 µM
29 | NS(=O)(=O)c1ccc(NC(=O)c2ccc3nc4ccccc4c(Nc4ccc(S(N)(=O)=O)cc4)c3c2)cc1 | inactive: > 100 µM
30 | CC(=O)NC(C)(C)C1CC=C(C)/C(=N\O)C1 (configuration not stated) | inactive: > 100 µM
31 | O=[N+]([O-])C(=C(c1ccccc1)c1ccccc1)[N+](=O)[O-] | inactive: 17.5 µM
32 | COC(=O)NC(C(F)(F)F)(C(F)(F)F)P1(=O)OCCCO1 | inactive: 53.5 µM

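Following 48 hours of exposure in 96-well plates, responses at five concentrations were used to interpolate endpoints linearly. Abbreviation: GI50, concentration required for 50% inhibition of growth.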 Activity calls are given as the source filed them. No stated cut-off is given here; in the data, active = GI50 up to about 1.1 µM and inactive = higher. Numbered stars: 1 amine (or outer) side, 2 acyl side, 3 side chain; on linkers, the order of the positions; unused ones are H or OH. Bridge positions count the residues as written; N and C are the ends. Square brackets hold non-standard residues; d marks the D form. Peptide text beside a SMILES is read from it. I, II: the chains in the order shown. Actinocin(9to1) = Cc1c2oc3c(C)ccc(C(=O)[*:1])c3nc-2c(C(=O)[*:2])c(N)c1=O; NMeV = CN[CH](C(=O)O)C(C)C; Sar = CNCC(=O)O
